The other results are listed elsewhere or left out. The full chains were built here from the parent and the listed change. Inactive controls read about 0.05.
B1: TEV protease; numbered along this chain (parent)
chain: MGESLFKGPRDYNPISSSICHLTNESDGHTTSLYGIGFGPFIITNKHLFRRNNGTLVVQSLHGVFKVKDTTTLQQHLVDGRDMIIIRMPKDFPPFPQKLKFREPQREERICLVTTNFQTKSMSSMVSDTSCTFPSGDGIFWKHWIQTKDGQCGSPLVSTRDGFIVGIHSASNFTNTNNYFTSVPKNFMELLTNQEAQQWVSGWRLNADSVLWGGHKVFMVKPEEPFQPVKEATQL

Variants of: B1
Experiment: raw area under fraction-flipped curve 0-4 h after induction (AUC4h, not background-subtracted), DNA-recorder readout of cleavage of the substrate (dimensionless); higher = more cleavage of the substrate by the protease variant
Details: temperature: 34 °C; time window: 0-4 h after rhamnose induction
Procedure: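 In vivo DNA recorder in E. coli TOP10(DE3) ΔrhaA at 34 °C. Each TEVp single-site mutant (parent TEVp 0) is paired with a single-site variant of the 7-mer TEVs (canonical ENLYFQ|S). The substrate sits between flexible linkers in a Bxb1-sfGFP-TEVs-SsrA fusion, so cleavage stabilises Bxb1 and speeds flipping of a recombination array, read by NGS. The value is the raw area under the fraction-flipped curve over 0-4 h after rhamnose induction (AUC4h), with ≥20 reads per time point. It is not background-subtracted; inactive controls average about 0.047.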
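Note: Bxb1 expression induced with 0.2% (w/v) L-rhamnose at OD600 near 0.5, cultures sampled hourly, flipped fraction per protease–substrate barcode pair counted by paired-end Illumina sequencing.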

Row | Variant | area with substrate EALYFQS | area with substrate EDLYFQS | area with substrate EELYFQS | area with substrate EFLYFQS | area with substrate EGLYFQS | area with substrate EHLYFQS | area with substrate EILYFQS | area with substrate ELLYFQS | area with substrate EMLYFQS | area with substrate EPLYFQS | area with substrate EQLYFQS | area with substrate ERLYFQS | area with substrate ESLYFQS | area with substrate EWLYFQS | area with substrate EYLYFQS | area with substrate ECLYFQS | area with substrate EKLYFQS | area with substrate ETLYFQS | area with substrate EVLYFQS
1 | MGESLFKGPRDYNPISSSICHLTNESDGHTTSLYGIGFGPFIITNKHLFRRNNGTLVVQSLHGVFKVKDTTTLQQHLVDGRDMIIIRMPKDFPPFPQKLKFREPQREERICLVTTNFQTKSMSSMVSDTSCTFPSGDGIFWKHWIQTKDGQCGSPLVSTRDGFIVGIHSASNFTNTNNYFTSVPKNFMELLTNQEAQQWVSGWRLNADSVLWGGHKVFMVKPEEPFQPKKEATQL [V229K] | 0.119 | 0.129 | 0.134 | 0.0979 | 0.121 | 0.127 | 0.0871 | 0.117 | 0.129 | 0.128 | 0.101 | 0.119 | 0.127 | 0.0978 | 0.108 | – | – | – | –
2 | MGESLFKGPRDYNPISSSICHLTNESDGHTTSLYGIGFGPFIITNKHLFRRNNGTLVVQSLHGVFKVKDTTTLQQHLVDGRDMIIIRMPKDFPPFPQKLKFREPQREERICLVTTNFQTKSMSSMVSDTSCTFPSGDGIFWKHWIQTKDGQCGSPLVSTRDGFIVGIHSASNFTNTNNYFTSVPKNFMELLTNQEAQQWVSGWRLNADSVLWGGHKVFMVKPEEPFQPQKEATQL [V229Q] | 0.113 | – | – | – | 0.0985 | 0.0883 | 0.102 | 0.117 | 0.0996 | – | – | – | 0.0944 | 0.088 | – | 0.107 | 0.102 | 0.119 | 0.0921
3 | MGESLFKGPRDYNPISSSICHLTNESDGHTTSLYGIGFGPFIITNKHLFRRNNGTLVVQSLHGVFKVKDTTTLQQHLVDGRDMIIIRMPKDFPPFPQKLKFREPQREERICLVTTNFQTKSMSSMVSDTSCTFPSGDGIFWKHWIQTKDGQCGSPLVSTRDGFIVGIHSASNFTNTNNYFTSVPKNFMELLTNQEAQQWVSGWRLNADSVLWGGHKVFMVKPEEPFQPEKEATQL [V229E] | 0.126 | 0.146 | – | – | – | – | – | 0.0822 | – | 0.131 | – | – | 0.107 | 0.107 | 0.13 | – | – | 0.118 | 0.0888
4 | MGESLFKGPRDYNPISSSICHLTNESDGHTTSLYGIGFGPFIITNKHLFRRNNGTLVVQSLHGVFKVKDTTTLQQHLVDGRDMIIIRMPKDFPPFPQKLKFREPQREERICLVTTNFQTKSMSSMVSDTSCTFPSGDGIFWKHWIQTKDGQCGSPLVSTRDGFIVGIHSASNFTNTNNYFTSVPKNFMELLTNQEAQQWVSGWRLNADSVLWGGHKVFMVKPEEPFQPVSEATQL [K230S] | 0.113 | 0.137 | – | 0.141 | 0.0932 | – | – | 0.112 | 0.134 | – | 0.123 | – | 0.116 | 0.0942 | 0.129 | – | 0.111 | 0.125 | 0.088
5 | MGESLFKGPRDYNPISSSICHLTNESDGHTTSLYGIGFGPFIITNKHLFRRNNGTLVVQSLHGVFKVKDTTTLQQHLVDGRDMIIIRMPKDFPPFPQKLKFREPQREERICLVTTNFQTKSMSSMVSDTSCTFPSGDGIFWKHWIQTKDGQCGSPLVSTRDGFIVGIHSASNFTNTNNYFTSVPKNFMELLTNQEAQQWVSGWRLNADSVLWGGHKVFMVKPEEPEQPVKEATQL [F226E] | 0.185 | 0.142 | – | – | 0.102 | 0.111 | – | 0.114 | 0.101 | – | – | 0.106 | 0.0464 | 0.0858 | – | 0.119 | – | 0.126 | 0.158
6 | MGESLFKGPRDYNPISSSICHLTNESDGHTTSLYGIGFGPFIITNKHLFRRNNGTLVVQSLHGVFKVKDTTTLQQHLVDGRDMIIIRMPKDFPPFPQKLKFREPQREERICLVTTNFQTKSMSSMVSDTSCTFPSGDGIFWKHWIQTKDGQCGSPLVSTRDGFIVGIHSASNFTNTNNYFTSVPKNFMELLTNQEAQQWVSGWRLNADSVLWGGHKVFMVKPEEPGQPVKEATQL [F226G] | 0.131 | – | – | 0.138 | 0.0839 | 0.0856 | 0.0766 | 0.109 | 0.112 | – | – | 0.129 | 0.0727 | – | – | 0.124 | 0.101 | – | 0.108
7 | MGESLFKGPRDYNPISSSICHLTNESDGHTTSLYGIGFGPFIITNKHLFRRNNGTLVVQSLHGVFKVKDTTTLQQHLVDGRDMIIIRMPKDFPPFPQKLKFREPQREERICLVTTNFQTKSMSSMVSDTSCTFPSGDGIFWKHWIQTKDGQCGSPLVSTRDGFIVGIHSASNFTNTNNYFTSVPKNFMELLTNQEAQQWVSGWRLNADSVLWGGHKVFMVKPEEPQQPVKEATQL [F226Q] | 0.11 | – | 0.143 | 0.181 | 0.115 | – | – | 0.0899 | 0.132 | – | – | 0.131 | 0.0986 | – | 0.105 | – | 0.109 | – | –
8 | MGESLFKGPRDYNPISSSICHLTNESDGHTTSLYGIGFGPFIITNKHLFRRNNGTLVVQSLHGVFKVKDTTTLQQHLVDGRDMIIIRMPKDFPPFPQKLKFREPQREERICLVTTNFQTKSMSSMVSDTSCTFPSGDGIFWKHWIQTKDGQCGSPLVSTRDGFIVGIHSASNFTNTNNYFTSVPKNFMELLTNQEAQQWVSGWRLNADSVLWGGHKVFMVKPEECFQPVKEATQL [P225C] | 0.109 | – | 0.0934 | 0.0803 | 0.0773 | 0.126 | 0.0919 | – | 0.103 | – | 0.108 | 0.0858 | 0.0854 | 0.0962 | – | – | 0.0962 | 0.124 | 0.0984
9 | MGESLFKGPRDYNPISSSICHLTNESDGHTTSLYGIGFGPFIITNKHLFRRNNGTLVVQSLHGVFKVKDTTTLQQHLVDGRDMIIIRMPKDFPPFPQKLKFREPQREERICLVTTNFQTKSMSSMVSDTSCTFPSGDGIFWKHWIQTKDGQCGSPLVSTRDGFIVGIHSASNFTNTNNYFTSVPKNFMELLTNQEAQQWVSGWRLNADSVLWGGHKVFMVKPEEKFQPVKEATQL [P225K] | 0.115 | – | 0.123 | 0.101 | 0.0989 | – | 0.0904 | – | – | – | 0.0847 | 0.116 | 0.108 | – | 0.0894 | – | 0.121 | 0.105 | –

Source: the supplement of paper PMC12217912
